Experimental data reported in PubChem BioAssay AID1745853 (National Center for Advancing Translational Sciences (NCATS), 2022).
Several values for one entry are separate records, joined by “and”; a condition that tells them apart may be missing. Equal entries are not always repeated. The list shows a part of the results. Further columns of the screen follow, without active or inactive calls.

Assays:
Assay in all cases: Primary Screen for Target Class Profiling of Small Molecule Inhibitors of Methyltransferases
[1] = target: Glycine N-methyltransferase (Homo sapiens) (UniProt Q14749); conditions: purified enzyme, MTase-Glo SAH luminescence; measured here: GNMT inhibition; at 40 µM; stronger effect = lower value
Procedure, shortened: (§1)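 Each enzyme was reacted with SAM and its substrate, with compounds tested once at 40 uM; SAH formed was read by MTase-Glo luminescence.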

[2] = target: Guanidinoacetate N-methyltransferase (Homo sapiens) (UniProt Q14353); conditions: purified enzyme, MTase-Glo SAH luminescence; measured here: GAMT inhibition; at 40 µM; stronger effect = lower value
Procedure, shortened: as §1

[3] = target: Histamine N-methyltransferase (Homo sapiens) (UniProt P50135); conditions: purified enzyme, MTase-Glo SAH luminescence; measured here: HNMT inhibition; at 40 µM; stronger effect = lower value
Procedure, shortened: as §1

[4] = target: Nicotinamide N-methyltransferase (Homo sapiens) (UniProt P40261); conditions: purified enzyme, MTase-Glo SAH luminescence; measured here: NNMT inhibition; at 40 µM; stronger effect = lower value
Procedure, shortened: as §1

[5] = target: Phenylethanolamine N-methyltransferase (Homo sapiens) (UniProt P11086); conditions: purified enzyme, MTase-Glo SAH luminescence; measured here: PNMT inhibition; at 40 µM; stronger effect = lower value
Procedure, shortened: as §1
On the % scale 0 is the no-effect control and ±100 the full control effect.

| SMILES | activity change, negative = inhibition [1] | activity change, negative = inhibition [2] | activity change, negative = inhibition [3] | activity change, negative = inhibition [4] | activity change, negative = inhibition [5] |
| --- | --- | --- | --- | --- | --- |
| COC(=O)c1ncn2c1C(=O)N(Cc1ccccc1OC)C(C)(C(=O)NC1CCCCC1)C2 (stereo not given) | -3.14% | 1.67% | -1.58% | -9.14% | -0.923% |
| COC(=O)NCC(=O)N1CC[C@@H]2[C@@H](CCC(=O)N2CCc2ccccc2)C1 | -3.65% | -6.13% | -1.63% | -12.7% | -5.03% |
| CC(=O)OC[C@@]12C(=O)C[C@@H](C)[C@]3(C[C@@H](c4ccoc4)O[C@H]3OC(C)=O)[C@H]1CCC[C@]21CO1 | -5.76% | -2.36% | 6.85% | -18.2% | -12.4% |
| O=C(Nc1ccccc1Cl)N1CCC(n2cc(C3CCCC3)nn2)CC1 | -2.28% | -4.9% | -1.47% | -5.69% | -3% |
| COc1ccc(CCN2C(=O)c3ccc(-c4ccco4)n3CC2(C)C(=O)NC2CCCC2)cc1OC (stereo not given) | -3.51% | 4.25% | 0.548% | -34.6% | -7.04% |
| COc1ccc(C(=O)Cn2nc3n(CCc4ccccc4)c(=O)c4ccccc4n3c2=O)cc1OC | -3.92% | 0% | 11.6% | -5.15% | -1.04% |
| CC(C)=CCC/C(C)=C/CO[C@@H]1O[C@H](CO[C@@H]2OC[C@](O)(CO)[C@H]2O)[C@@H](O)[C@H](O)[C@H]1O | 1.26% | 9.67% | 10.2% | -3.21% | 8.21% |
| CCC(CC)Nc1nc(C)c(-c2ccc(OC(F)(F)F)cc2OC)nc1OC | -9.13% | -16.1% | 0.751% | -27.6% | -2.41% |
| C[C@@H]1O[C@@H](O[C@@H]2[C@@H](O)[C@H](O[C@H]3CC[C@@]4(C)C(CC[C@]5(C)C4CC=C4[C@@H]6CC(C)(C)CC[C@]6(C(=O)O[C@@H]6O[C@H](CO)[C@@H](O)[C@H](O)[C@H]6O)CC[C@]45C)C3(C)C)O[C@H](C(=O)O)[C@H]2O)[C@H](O)[C@H](O)[C@H]1O (stereo not given in full) | 2.9% | 1.33% | 7.26% | -6.56% | 6.37% |
| CC1(C(=O)NC2CCCCC2)Cn2nc(-c3cccs3)cc2C(=O)N1c1ccc(Cl)cc1 (stereo not given) | -1.08% | 3.89% | 5.72% | 2.55% | 0.092% |
| Cc1ccc(NC(=O)Cn2nc3n(C(C)C)c(=O)c4ccc(C(=O)NC5CCCC5)cc4n3c2=O)c(C)c1 | -1.59% | -3.21% | 0.849% | -4.35% | -3.81% |
| COc1cc(C2Oc3c(OC)cc(/C=C/C(=O)OC4CC(O)(C(=O)O)CC(O)C4O)cc3C2CO)ccc1O (stereo not given) | 3.24% | 8.61% | 7.71% | -3.45% | 7.01% |
| CCN1CCN(CCCNC(=O)c2cc3n(n2)CC(C)(C(=O)NCc2ccc(F)cc2)N(C)C3=O)CC1 (stereo not given) | -4% | 0% | -3.32% | -4.88% | -1.92% |
| O=C(NC1CCN(CCCCC2(C(=O)NCC(F)(F)F)c3ccccc3-c3ccccc32)CC1)c1ccccc1-c1ccc(C(F)(F)F)cc1 | 5.09% | -7.45% | -2.28% | -31.7% | -14.8% |
| CCC(=O)N1CCN(C(=O)c2ccccc2)CC1 | 2.67% | 15% | 9.67% | -1.53% | 3.09% |
| COc1ccc(C(=O)CC2(O)C(=O)Nc3c(Cl)ccc(Cl)c32)cc1 (stereo not given) | -1.66% | -3.06% | 8.56% | -19.1% | -1.49% |
| COCC(=O)N1CC2(CCCCC2)CC1COc1ccc(OC)cc1 (stereo not given) | -9.55% | -9.69% | -4.56% | -17.2% | -8.89% |
| CC(C)NC(=O)c1cc2n(n1)CC(C)(C(=O)NCc1ccc(F)cc1)N(C)C2=O (stereo not given) | 4.6% | 5.13% | 3.61% | -0.711% | 0.767% |
| CC(C)(C)Cn1c(N)nc2ccc(-c3[nH]c(C(C)(C)C)nc3-c3ccc(F)cc3)nc21 | -84.8% and -94.1% | -95.1% | -83.5% and -95.2% | -113% and -98.2% | -118% and -98% |
| COC(=O)Cn1c(=O)oc2cc(S(=O)(=O)NCC(C)c3ccccc3)ccc21 (stereo not given) | 2.9% | 0% | 5.55% | 3.9% | 3.97% |
| O=c1n(-c2ccncc2)nc2n1CCN(Cc1ccsc1)C2 | -10.3% | -8.07% | -7.12% | -16.1% | -10.3% |
| CC(=O)OC1C[C@]2(C)C(O)CC(C)=C[C@H](OC(=O)c3ccc(O)cc3)C2[C@]1(O)C(C)C (stereo not given in full) | -8.15% | 2.53% | -0.322% | -9.83% | -2.44% |
| CCOC(=O)c1cc2n(n1)CC(C)(C(=O)NC1CCCCCC1)N(Cc1ccc3c(c1)OCO3)C2=O (stereo not given) | -2.22% | 0% | -2.55% | -3.19% | 2.03% |
| CCN(CC)CCCN1C(=O)c2cc3oc(C)cc3n2CC1(C)C(=O)NC1CCCCC1 (stereo not given) | 7.21% | 0% | 3.19% | 10.1% | 2.44% |
| CCCN1C(=O)c2cc3c(OC)ccc(OC)c3n2CC1(C)C(=O)NC1CCCC(C)C1C (stereo not given) | -1.69% | 0% | 3.65% | 0.363% | -0.671% |
| Cc1ccc(NC(=O)CN(C)S(=O)(=O)c2ccc3[nH]c4c(c3c2)CCCC4)c(Cl)c1 | -1.5% | 1.26% | 3.28% | -4.76% | 0.845% |
| Cc1cnn(CCC(=O)N2CCCC(c3nnc(Cn4ccnc4)n3C)C2)c1 (stereo not given) | -1.94% | -1.46% | 1.04% | 3.81% | 7.06% |
| COc1cccc(S(=O)(=O)N2C[C@@H](Oc3cccnc3)C[C@H]2C(=O)NC2CC2)c1 | -8.81% | -16.9% | -5.7% | -14.9% | -11.4% |
| C=CCNC(=O)N1CC[C@H]2CC(=O)N(C3CC3)CC[C@H]2C1 | -6.99% | -6.11% | -3.82% | -8.87% | -6.03% |
